Screen size: about 220,000 compounds; about 16,000 (7.3%) were called active. Inconclusive means that the source gave no clear call. Such entries were picked first, then a sample of the others. The call rests on the fitted dose curve; in most records, active means well fitted inhibition curve with a large enough effect (not every such curve was filed as active); inconclusive means small, poorly fitted or top-dose-only effect, or another doubt; inactive means no such curve, though single readings can be large or run the other way. Potencies beside an inconclusive call are fits to weak or partial responses and may not hold up.
Target: Aldehyde dehydrogenase 1A1 (Homo sapiens) (UniProt P00352)
Chain of UniProt P00352 (P00352 whole entry, looked up): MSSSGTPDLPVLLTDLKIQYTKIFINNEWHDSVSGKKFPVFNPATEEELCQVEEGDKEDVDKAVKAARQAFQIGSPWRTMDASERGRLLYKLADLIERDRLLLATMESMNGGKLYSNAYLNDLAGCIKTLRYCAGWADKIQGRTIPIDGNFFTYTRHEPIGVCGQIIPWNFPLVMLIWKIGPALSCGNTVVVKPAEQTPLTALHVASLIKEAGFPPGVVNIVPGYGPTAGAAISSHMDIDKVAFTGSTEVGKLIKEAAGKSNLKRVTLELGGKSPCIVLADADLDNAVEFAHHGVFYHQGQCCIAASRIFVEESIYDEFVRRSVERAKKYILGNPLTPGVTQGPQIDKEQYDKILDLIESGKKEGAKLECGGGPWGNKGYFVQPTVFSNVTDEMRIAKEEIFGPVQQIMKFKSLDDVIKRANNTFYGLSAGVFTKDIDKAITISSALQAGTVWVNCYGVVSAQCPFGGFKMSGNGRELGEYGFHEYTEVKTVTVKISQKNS
Experiment: qHTS Assay for Inhibitors of Aldehyde Dehydrogenase 1 (ALDH1A1);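 on activity, negative = inhibition: plate controls were no enzyme wells and a reference inhibitor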
Details: Purified ALDH1A1, NADH fluorescence, propionaldehyde substrate; series mostly up to 75.3 µM
Potency means the concentration at half of the fitted maximal effect; tags describe the fitted curve by direction and shape.

Potency, inactive:
CCNC(=S)Nc1ccc(OC(F)(F)F)cc1
O=S(=O)(N/N=C/c1ccc2c(c1)OCCO2)c1ccc(Cl)cc1
CC1CC1C(=O)OCC(=O)Nc1ccc2[nH]c(=O)[nH]c2c1 (stereo not drawn)
Cc1ccc(S(=O)(=O)N2CCCCC2)c(C)c1NS(C)(=O)=O
CC(=O)c1ccc[nH]1
Clc1cnc(N/N=C/c2cccs2)c(Cl)c1
C=CCN1C(=O)/C(=C\c2ccco2)C(C(=O)OC)=C1C
O=C(CC1CCCCC1)NCC1CCCO1 (stereo not drawn)
CC(=O)c1cccc(NC(=O)CC2S/C(=N/N=C/c3cccs3)NC2=O)c1 (stereo not drawn)
Cc1ccccc1-c1oc(C)c(C)[n+]1[O-]
CC1=CC2=NC(=O)/C(=C\c3cc(C)n(-c4ccc(F)cc4)c3C)C(=N)N2O1
Cn1c(Cn2c(=O)sc3ccccc32)nnc1SCC(=O)NCc1ccc2c(c1)OCO2
CCCS(=O)(=O)N1CCN(S(=O)(=O)c2ccc(F)cc2)CC1
COCCCNC(=O)CN(c1cc(Cl)cc(Cl)c1)S(C)(=O)=O
COCCCn1c2nc3ccccc3nc2c2c(=O)n(-c3ccccc3OC)c(C)nc21
Cc1cc(S(=O)(=O)NC2CCCCC2)ccc1-n1cnnn1
CCCCC(=O)NS(=O)(=O)c1ccc(N=NN2CCOCC2)cc1
O=C(CSc1nc2ccccc2c(=O)n1CCCO)NCc1ccccc1
C=C(C)Cn1c(N2CCCC2)nc2c1c(=O)[nH]c(=O)n2C
Cc1nn(C)c(C)c1N=Cc1c(O)ccc2ccccc12
CC(C)(C)NC(=O)[C@@H]1C[C@H]2CCCC[C@@H]2CN1C[C@H](O)[C@H](Cc1ccccc1)NC(=O)[C@@H](CC(N)=O)NC(=O)c1ccc2ccccc2n1

Potency, inconclusive:
Cc1nc(=S)n(-c2ccccc2)[nH]1 44.7 µM [inhibitor, single point]
COc1ccc(-n2nc([N+](=O)[O-])c(=NCc3ccco3)n2O)cc1 28.2 µM [inhibitor, single point]
COc1ccc(C2C(=O)N(C3CCCCC3)CC(=O)N2Cc2ccco2)cc1 (stereo not drawn) 17.8 µM [inhibitor, partial curve]
CCN(Cc1ccccc1)C(=O)COC(=O)CNS(=O)(=O)c1ccc(C)cc1 25.1 µM [inhibitor, single point]
CCOC(=O)C1(CC2CC2)CCN(Cc2cn(C)c3ccccc23)CC1 23.8 µM [inhibitor, single point]
O=C(NCC(=O)N(Cc1ccccc1)C(C(=O)NC1CCCC1)c1ccco1)c1ccco1 (stereo not drawn) 23.8 µM [inhibitor, single point]
Cc1nnc2ccc(N3CCC4(CC3)OCCO4)nn12 39.8 µM [inhibitor, single point]
C=CCn1c(CNC(=O)c2ccco2)nnc1SCC(=O)c1ccc(OC)cc1 15.8 µM [inhibitor, partial curve, poor fit]
O=C(/C=C\c1cn(-c2ccccc2)nc1-c1cccs1)N1CCOCC1 39.8 µM [inhibitor, single point]
COCc1c(C(=O)N/N=C/c2cccc3ccccc23)nnn1-c1nonc1N 31.6 µM [inhibitor, partial curve]
N#Cc1c(Cl)cccc1N1CCCC1 39.8 µM [inhibitor, single point]
CCOC(=O)c1c(-c2ccccc2)oc2ccc(O)c(CN3CCN(C)CC3)c12 1.58 µM [inhibitor, single point]
Cc1nc(SCC(=O)N(C)Cc2ccco2)c2c(C)c(C)sc2n1 39.8 µM [inhibitor, single point]
O=C(CCn1c(=O)oc2ccccc21)Nc1cccc(Cl)c1 31.6 µM [inhibitor, single point]
CCN1C(=O)C2(C(C(=O)c3ccc(C)o3)=C(O)C(=O)N2CCCN2CCOCC2)c2ccccc21 (stereo not drawn) 22.4 µM [inhibitor, partial curve]
COc1ccc(NC(=S)N(Cc2cccnc2)Cc2cc3cc(OC)c(OC)cc3[nH]c2=O)cc1 25.1 µM [inhibitor, single point]
O=C(NCCc1csc(-c2cccnc2)n1)c1ccco1 28.2 µM [inhibitor, single point]
Cc1ccc(/C=C2\SC(=S)N(CCC(=O)NNC(=O)c3cccnc3)C2=O)cc1 2.82 µM [inhibitor, full curve]
COc1cccc(Nc2nnc(SCN3C(=O)c4ccccc4C3=O)s2)c1 22.4 µM [inhibitor, single point]
CC(C)(C)c1ccc(S(=O)(=O)C(C)(C)C)cc1 22.4 µM [inhibitor, single point]
Nc1ccccc1-c1nc2ccccc2s1 31.6 µM [inhibitor, single point]
Cc1ccc2nc(-c3ccc(S(=O)(=O)N4CCOCC4)cc3)cn2c1 28.2 µM [inhibitor, partial curve]
CCOC(=O)/C=c1\sc2n(c1=O)CCN=2 35.5 µM [inhibitor, single point]
Cc1c(Cl)cccc1NC(=S)N=Nc1c(O)n(CN2CCOCC2)c2ccccc12 39.8 µM [inhibitor, single point]
Cc1nnc(SCC(=O)NC2CCCC2)s1 39.8 µM [inhibitor, single point]
COc1nc(NCCN2CCOCC2)nc(Nc2ccc([N+](=O)[O-])cc2)n1 39.8 µM [inhibitor, single point]
CCNC(=S)N(Cc1cc2cccc(C)c2[nH]c1=O)C1CCCC1 8.91 µM [inhibitor, single point]
O=[N+]([O-])c1cc(/C=N/Nc2nc(N3CCCCC3)nc(N3CCCCC3)n2)ccc1O 17.8 µM [inhibitor, single point]
Cc1cccc2cc(CN(CC3CCCO3)C(=O)c3ccco3)c(=O)[nH]c12 (stereo not drawn) 25.1 µM [inhibitor, partial curve]
Cc1cccc(-n2ncc3c(NCc4ccco4)ncnc32)c1 39.8 µM [inhibitor, single point]
O=Cc1ccc(OCc2cn3ccccc3n2)cc1 8.91 µM [inhibitor, single point]
O=C(Nc1ccc(NC(=O)c2ccccn2)cc1)C(=O)Nc1ccc2c(c1)OCCO2 31.6 µM [inhibitor, single point]
O=c1cc(-c2ccc3c(c2)OCCO3)oc2ccc(Cl)cc12 17.8 µM [inhibitor, partial curve, poor fit]
Cc1cc(C)cc(N2Cc3ccccc3C2)c1 39.8 µM [inhibitor, single point]
Cc1ccc(C2CC(=O)NC(SCC(=O)OCc3ccccc3)=C2C#N)o1 (stereo not drawn) 44.7 µM [inhibitor, single point]
COc1ccc(S(=O)(=O)N2CCCCC2)cc1NC(=O)c1ccc2c(c1)OCO2 39.8 µM [inhibitor, single point]
Cc1ccc(-c2csc(NC(=O)CSc3nc(C)cc(=O)[nH]3)n2)cc1 44.7 µM [inhibitor, single point]
CCOC(=O)c1sc(Nc2nc3cc4c(cc3s2)OCO4)cc1C 11.2 µM [inhibitor, partial curve]
CC(=O)N1CC=C2C(C#N)=C(N)C(C#N)(C#N)[C@H](c3ccoc3)[C@H]2C1 39.8 µM [inhibitor, single point]
N#Cc1nc(-c2cccs2)oc1NCCN1CCOCC1 28.2 µM [inhibitor, partial curve]
Cc1ccc(C)c(-c2cc(C(=O)NNC(=S)NCC(C)C)c3ccccc3n2)c1 22.4 µM [inhibitor, single point]

Potency, active:
Cc1cc(C(=O)C(C)Cl)c(C)n1Cc1ccco1 (stereo not drawn) 7.08 µM
Cc1cc(/C=C2\SC(=S)N(Cc3ccco3)C2=O)c(C)n1-c1cccnc1 0.282 µM
CCN(CC)c1ccc(N=Cc2ccc(N(CC)CC)cc2O)cc1 1.78 µM
CC(C)(C)NCCOCCOc1ccccc1-c1ccccc1 25.1 µM
COc1ccc(N2C(=O)CC(NCCNc3ccc([N+](=O)[O-])cn3)C2=O)cc1 (stereo not drawn) 1.78 µM
O=c1c(-c2ccccc2)coc2cc(O)cc(O)c12 11.2 µM
O=[n+]1c2c(n([O-])c3cc(Br)ccc31)CCC2 31.6 µM
Cn1c(=O)c([N+](=O)[O-])c(Oc2ccccc2)c2ccccc21 17.8 µM
CC(=O)c1ccc(N2CCN(C(=O)c3ccco3)CC2)c(F)c1 3.55 µM

activity, negative = inhibition, inactive:
C/C(CCN1CCCc2nc(C)c(C)cc21)=N\O[C@@H](C)CN1CCCc2nc(C)c(C)cc21 -2.14% [at 13.5 µM]
CCCNC(=O)OC[C@H]1O[C@@H](CCO/N=C2/C[C@@H](O)[C@@H](O)[C@@H]3[C@@H]4C(=O)N(CC)C(=O)[C@H]4CC[C@@H]23)C=C[C@@H]1Oc1ccc(OC)cc1 -11.4% [at 13.5 µM]

Source: PubChem BioAssay AID1030 (National Center for Advancing Translational Sciences (NCATS), 2008)
